In one assay the test system is HSkMC. The assay is described as follows: cytotoxicity call (relative viability < 0.9). Conditions: 10 µM.
The subject of another assay is HepG2. The assay is described as follows: cytotoxicity call (relative viability < 0.9). The conditions noted are these: 10 µM.
For another assay, the system named is S. aureus RN4220. The assay is described as follows: growth inhibition call (relative growth <= 0.2). The conditions noted are these: 50 µM.

The other results are listed elsewhere or left out.

Turning to `COCCN1[C@@H]2COC[C@H]1CN(S(=O)(=O)c1cn(C)cn1)C2`, the cytotoxicity call in the assay on HSkMC and with HepG2 was “inactive” in each case. Moreover, the growth inhibition call in the assay on S. aureus RN4220 is “inactive”.

Turning to `C[C@H](CO)N1C[C@H](C)[C@@H](CN(C)C(=O)Nc2ccc(C(F)(F)F)cc2)Oc2ncc(C3=CCCC3)cc2C1=O`, the cytotoxicity call in the assay on HSkMC and with HepG2 was “inactive” each time. The growth inhibition call in the assay with S. aureus RN4220 is “inactive”.

Consider `C[C@H]1CN([C@@H](C)CO)C(=O)Cc2cc(N(C)C)ccc2O[C@H]1CN(C)S(=O)(=O)c1ccc(F)cc1`, for which the cytotoxicity call with HSkMC and with HepG2 was “inactive” in each case. Also, the growth inhibition call with S. aureus RN4220 was “inactive”.

As to `COc1ccc(NC(=O)N(C)C[C@@H]2OCCCC[C@H](C)Oc3ccc(NC(=O)Nc4cccc5ccccc45)cc3C(=O)N([C@H](C)CO)C[C@@H]2C)cc1`, the cytotoxicity call in the assay on HSkMC and with HepG2 was “inactive” each time. For the same compound, the growth inhibition call in the assay on S. aureus RN4220 is “inactive”.

On to `COc1ccc(S(=O)(=O)N(C)C[C@H]2Oc3c(NS(C)(=O)=O)cccc3C(=O)N([C@@H](C)CO)C[C@@H]2C)cc1`, for which the cytotoxicity call in the assay with HSkMC and with HepG2 was “inactive” each time. The growth inhibition call in the assay on S. aureus RN4220 is “inactive”.

Consider `C[C@H]1CN([C@@H](C)CO)C(=O)c2cccc(NC(=O)Nc3cccc4ccccc34)c2O[C@H]1CN(C)Cc1ccc(Oc2ccccc2)cc1`, for which, in the assay with HSkMC, the cytotoxicity call was “inactive”. In addition, the cytotoxicity call in the assay with HepG2 is “active”. In addition, the growth inhibition call in the assay on S. aureus RN4220 was “inactive”.

For `O=C(O)CCC(=O)N1CC(=O)Nc2ccccc21`, the cytotoxicity call with HSkMC and in the assay with HepG2 was “inactive” throughout. Besides, in the assay on S. aureus RN4220, the growth inhibition call is “inactive”.

For `COc1ccc(S(=O)(=O)Nc2ccc3c(c2)C(=O)N([C@@H](C)CO)C[C@H](C)[C@@H](CN(C)Cc2ccc(Oc4ccccc4)cc2)O3)cc1`, the cytotoxicity call with HSkMC and in the assay on HepG2 was “inactive” throughout. In addition, the growth inhibition call in the assay with S. aureus RN4220 is “inactive”.

`C[C@H](CO)N1C[C@H](C)[C@H](CN(C)Cc2ccc(C(F)(F)F)cc2)OCCCC[C@H](C)Oc2ccc(NC(=O)NC3CCCCC3)cc2C1=O`: the cytotoxicity call in the assay on HSkMC and in the assay with HepG2 was “inactive” in each case. Further, the growth inhibition call with S. aureus RN4220 was “inactive”.

Regarding `CC(=O)OCC1=C(C(=O)[O-])N2C(=O)C(NC(=O)Cc3cccs3)C2SC1.[Na+]` (stereo not drawn), the cytotoxicity call in the assay on HSkMC and with HepG2 was “inactive” throughout. Further, the growth inhibition call with S. aureus RN4220 is “active”.

For the compound `Cc1ccc(S(=O)(=O)N(C)C[C@H]2OCCCC[C@@H](C)Oc3ccc(NC(=O)Cc4ccccc4)cc3C(=O)N([C@@H](C)CO)C[C@H]2C)cc1`, the cytotoxicity call with HSkMC and with HepG2 was “inactive” each time. Further, the growth inhibition call in the assay with S. aureus RN4220 is “inactive”.

In the case of `Cc1cc(CC(=O)O)n(C)c1C(=O)c1ccc(Cl)cc1`, the cytotoxicity call in the assay on HSkMC and in the assay with HepG2 was “inactive” each time. In addition, the growth inhibition call in the assay on S. aureus RN4220 is “inactive”.

For `C=CCNC(=O)[C@H]1CCCN(S(C)(=O)=O)C1`, the cytotoxicity call in the assay with HSkMC and in the assay on HepG2 was “inactive” in each case. Also, the growth inhibition call in the assay on S. aureus RN4220 is “inactive”.

Regarding `C[C@@H]1CN([C@@H](C)CO)C(=O)Cc2cc(NC(=O)NC3CCCCC3)ccc2O[C@@H]1CN(C)S(=O)(=O)c1cn(C)cn1`, the cytotoxicity call with HSkMC and in the assay with HepG2 was “inactive” in each case. In the assay on S. aureus RN4220, the growth inhibition call was “inactive”.

On to `C[C@H]1CCCCO[C@H](CN(C)Cc2ccc(Cl)c(Cl)c2)[C@@H](C)CN([C@@H](C)CO)C(=O)c2cc(NS(C)(=O)=O)ccc2O1`, for which the cytotoxicity call with HSkMC and with HepG2 was “inactive” each time. Moreover, the growth inhibition call in the assay on S. aureus RN4220 is “inactive”.

Turning to `Clc1ccc(/N=C/c2ccc(Br)o2)cc1Cl`, the cytotoxicity call in the assay with HSkMC and in the assay on HepG2 was “inactive” throughout. The growth inhibition call in the assay with S. aureus RN4220 was “inactive”.

As for `C[C@@H]1CN([C@@H](C)CO)C(=O)c2cc(-c3cccc(C#N)c3)cnc2O[C@@H]1CN(C)C(=O)c1cnccn1`, the cytotoxicity call in the assay with HSkMC and with HepG2 was “inactive” throughout. The growth inhibition call with S. aureus RN4220 is “inactive”.

In the case of `C[C@@H]1CN([C@@H](C)CO)S(=O)(=O)c2ccc(C#CCC3CCCC3)cc2O[C@@H]1CN(C)C(=O)CN(C)C`, the cytotoxicity call in the assay on HSkMC was “inactive”. The cytotoxicity call in the assay on HepG2 was “active”. Also, the growth inhibition call in the assay with S. aureus RN4220 was “inactive”.

Turning to `COc1cc(C(=O)N2CCC3(CC2)CC(=O)c2cc(-c4cncc(C(=O)O)c4)ccc2O3)cc2c1c(C)cn2C1CC1`, the cytotoxicity call in the assay on HSkMC and with HepG2 was “inactive” in each case. Besides, the growth inhibition call with S. aureus RN4220 is “inactive”.

Regarding `COc1ccc2c(c1)C(=O)N(CCc1ccc(S(=O)(=O)NC(=O)NC3CCCCC3)cc1)C(=O)C2(C)C`, the cytotoxicity call in the assay with HSkMC and in the assay on HepG2 was “inactive” in each case. In the assay with S. aureus RN4220, the growth inhibition call was “inactive”.

As for `C[C@H]1CN([C@@H](C)CO)C(=O)CCCn2cc(nn2)CO[C@H]1CN(C)S(=O)(=O)c1ccc2ccccc2c1`, the cytotoxicity call with HSkMC and in the assay on HepG2 was “inactive” each time. Also, the growth inhibition call in the assay with S. aureus RN4220 is “inactive”.

In the case of `C[C@@H]1CN([C@@H](C)CO)C(=O)c2cc(NC(=O)Cc3cn(C)c4ccccc34)ccc2O[C@H]1CN(C)C(=O)Nc1cccc2ccccc12`, the cytotoxicity call in the assay on HSkMC and in the assay with HepG2 was “inactive” throughout. Also, the growth inhibition call with S. aureus RN4220 was “inactive”.

`COc1ccc(S(=O)(=O)N(C)C[C@H]2Oc3ccc(NS(=O)(=O)c4c(C)noc4C)cc3CC(=O)N([C@@H](C)CO)C[C@H]2C)cc1`: the cytotoxicity call in the assay with HSkMC and in the assay on HepG2 was “inactive” in each case. In addition, the growth inhibition call in the assay with S. aureus RN4220 is “inactive”.

Turning to `C[C@@H]1CN([C@@H](C)CO)C(=O)Cc2cc(NC(=O)Cc3cn(C)c4ccccc34)ccc2O[C@@H]1CN(C)Cc1ccc(C(=O)Nc2ccccc2N)cc1`, the cytotoxicity call in the assay on HSkMC and in the assay with HepG2 was “inactive” each time. Besides, the growth inhibition call with S. aureus RN4220 is “inactive”.

Regarding `Cc1noc(C)c1S(=O)(=O)Nc1ccc2c(c1)C(=O)N([C@@H](C)CO)C[C@@H](C)[C@@H](CN(C)Cc1ccc(C(=O)O)cc1)O2`, the cytotoxicity call in the assay on HSkMC (human skeletal muscle cells) and in the assay with HepG2 was “inactive” in each case. Further, the growth inhibition call in the assay with S. aureus RN4220 was “inactive”.

For the compound `C[C@H]1CN([C@@H](C)CO)S(=O)(=O)c2ccc(C#Cc3ccccc3F)cc2O[C@@H]1CN(C)C(=O)Cc1ccncc1`, the cytotoxicity call in the assay with HSkMC and in the assay on HepG2 was “inactive” throughout. The growth inhibition call in the assay with S. aureus RN4220 was “inactive”.

The values above are taken from the antibiotic and cytotoxicity screens of Wong et al. (2023).
